This test has as its target T1, biotinylated truncated STAT6 (123-632)-avi (Homo sapiens, UniProt P42226).
T1 sequence (P42226 123-632 limits assumed): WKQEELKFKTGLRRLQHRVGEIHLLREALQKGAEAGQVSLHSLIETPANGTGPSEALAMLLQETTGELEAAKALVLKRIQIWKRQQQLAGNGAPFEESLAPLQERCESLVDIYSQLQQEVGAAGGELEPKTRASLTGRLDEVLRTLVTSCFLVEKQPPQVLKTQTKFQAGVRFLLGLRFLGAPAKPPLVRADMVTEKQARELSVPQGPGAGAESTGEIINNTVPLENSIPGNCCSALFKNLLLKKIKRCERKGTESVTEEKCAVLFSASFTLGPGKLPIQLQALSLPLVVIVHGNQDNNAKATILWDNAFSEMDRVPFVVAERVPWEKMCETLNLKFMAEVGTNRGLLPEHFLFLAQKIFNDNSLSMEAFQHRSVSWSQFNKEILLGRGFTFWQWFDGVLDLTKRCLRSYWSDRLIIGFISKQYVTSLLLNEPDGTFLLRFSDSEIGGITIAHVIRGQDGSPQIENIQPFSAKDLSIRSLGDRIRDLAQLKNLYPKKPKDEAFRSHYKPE
The test is described as follows: Homogenous Time-Resolved Fluorescence (HTRF) binding assay. The settings on record: 0.15 nM biotinylated truncated STAT6 (123-632)-avi, 20 nM fluorescein-labeled probe. A general note: Time-resolved FRET reads energy transfer from a long-lived donor to a nearby acceptor.

In general, IC50 refers to the concentration that gives 50% inhibition. Lower therefore signals greater potency. In the case of `CN(C)C(=O)c1cc2cc([C@H]3CC[C@H](CO)N(C(=O)CCn4ccnn4)C3)ccc2o1` (single isomer, unassigned) [Example I-157], for the setting “30 minutes at room temperature”, the IC50 lay in the range of 1000 to 10000 nM.
For the compound `CN(C)C(=O)c1cc2cc(C3=CCCN(C(=O)[C@@H](N)Cn4ccnn4)C3)ccc2o1` (single isomer, unassigned) [Example I-173], the IC50 (30 minutes at room temperature) lay within 10000 to 100000 nM.
Same read-out and setting: the figure for `CC(=O)N1CCc2ccccc2[C@@H]1C(=O)N1CCC=C(c2ccc3oc(C(=O)N(C)C)cc3c2)C1` (single isomer, unassigned) [Example I-177] is 10000 to 100000 nM; for `C[C@H](Cn1ccnn1)C(=O)N1CCC=C(c2ccc3oc(C(=O)N(C)C)cc3c2)C1` (single isomer, unassigned) [Example I-228] it is 100 to 1000 nM.
On to `COC(=O)c1cc2c(F)c([C@@H]3CCCN(C(=O)CCn4cccn4)C3)cc(-c3ccc(N4CCN(C(=O)OC(C)(C)C)CC4)cc3)c2o1` (single isomer, unassigned) [Example I-1266], for which the IC50 (30 minutes room temperature) was in the range of 10000 to 100000 nM.
Compound `CN(C)C(=O)c1cc2ccc(C3=CCCN(C(=O)CCc4ccno4)C3)cc2[nH]1` [Example I-19] registered an IC50 (30 minutes at room temperature) above 100000 nM.
For the compound `CN(C)C(=O)c1cc2ccc(C3=CCCN(C(=O)C4(C#N)CC4)C3)cc2[nH]1` [Example I-29], the IC50 (30 minutes at room temperature) lay in the range of 1000 to 10000 nM.
Regarding `CN(C)C(=O)c1cc2ccc(C3=CCCN(C(=O)c4nonc4C4CC4)C3)cc2[nH]1` [Example I-44], the IC50 (30 minutes at room temperature) was 10000 to 100000 nM.
On the same count and under the same terms, the figure for `CN(C)C(=O)c1cc2ccc(C3=CCCN(C(=O)CCc4cccc(C#N)c4)C3)cc2[nH]1` [Example I-63] is 10000 to 100000 nM; for `CN(C)C(=O)c1cc2ccc(C3=CCCN(C(=O)[C@@H](N)Cc4cccc(F)c4)C3)cc2[nH]1` [Example I-65] it is 10000 to 100000 nM.
Same read-out and setting: the figure for `CN(C)C(=O)c1cc2ccc(C3=CCCN(C(=O)c4ccc(-c5ccc(Cl)cc5)cc4)C3)cc2[nH]1` [Example I-83] is 1000 to 10000 nM; for `CN(C)C(=O)c1cc2ccc(C3=CCCN(C(=O)C4(c5ccccc5)CCC(=O)NC4)C3)cc2[nH]1` (stereo not drawn) [Example I-87] it is 100 to 1000 nM.
Still for that read-out and setting: the figure for `CN(C)C(=O)c1cc2ccc(C3=CCCN(C(=O)CC(c4ccccc4)c4ccccc4)C3)cc2[nH]1` [Example I-91] is 1000 to 10000 nM; for `CN(C)C(=O)c1cc2ccc(C3=CCCN(C(=O)c4ccccc4-c4ccccc4C(=O)O)C3)cc2[nH]1` [Example I-105] it is 10000 to 100000 nM; for `Cc1ccc(C(=O)N2CCC=C(c3ccc4cc(C(=O)N(C)C)[nH]c4c3)C2)c(=O)n1-c1ccc(F)cc1` [Example I-111] it is 10000 to 100000 nM.
As to `Cc1c(S(C)(=O)=O)ccc(C(=O)N2CCC=C(c3ccc4cc(C(=O)N(C)C)[nH]c4c3)C2)c1Cl` [Example I-138], where the note is “30 minutes at room temperature”, the IC50 lay within 1000 to 10000 nM.
In the case of `CN(C)C(=O)c1cc2cc(C3=CCCN(C(=O)CCn4ccnn4)C3)cc(-c3ccc(O)cc3)c2o1` [Example I-205], the IC50 (30 minutes at room temperature) is below 100 nM.
For `CN(C)C(=O)c1cc2cc(C3=CCCN(C(=O)CCc4cncnc4)C3)ccc2o1` [Example I-272], the IC50 (30 minutes at room temperature) was 10000 to 100000 nM.
Same read-out and setting: the figure for `CN(C)C(=O)c1cc2cc(C3=CCCN(C(=O)CCc4cn5cccnc5n4)C3)ccc2o1` [Example I-281] is 10000 to 100000 nM; for `CN(C)C(=O)c1cn2ccc(C3=CCCN(C(=O)CCn4ccnn4)C3)cc2n1` [Example I-289] it is 10000 to 100000 nM.
In turn, `CN(C)C(=O)c1cc2cc(C3=CCCN(C(=O)CCc4ccncc4)C3)ccc2o1` [Example I-313] displayed an IC50 (30 minutes at room temperature) of 1000 to 10000 nM.
On the same count and under the same terms, the figure for `COc1ccccc1-c1cc(C2=CCCN(C(=O)CCn3ccnn3)C2)c(F)c2[nH]c(C(=O)N3CCN(c4ncccc4Cl)CC3)cc12` [Example I-324] is below 100 nM.
As for `COc1ccccc1-c1cc(C2=CCCN(C(=O)CCn3ccnn3)C2)c(F)c2[nH]c(C(=O)N3CCN(c4ncccc4OC(F)(F)F)CC3)cc12` [Example I-331, 1-(5-(7-fluoro-4-(2-methoxyphenyl)-2-(4-(3-(trifluoromethoxy)pyridin-2-yl)piperazine-1-carbonyl)-1H-indol-6-yl)-3,6-dihydropyridin-1(2H)-yl)-3-(1H-1,2,3-triazol-1-yl)propan-1-one], the IC50 (30 minutes at room temperature) is below 100 nM.
Same read-out and setting: the figure for `COc1ccccc1-c1cc(C2=CCCN(C(=O)CCn3ccnn3)C2)c(F)c2sc(C(=O)N(C)C)cc12` [Example I-337, 6-(1-(3-(1H-1,2,3-triazol-1-yl)propanoyl)-1,2,5,6-tetrahydropyridin-3-yl)-7-fluoro-4-(2-methoxyphenyl)-N,N-dimethylbenzo[b]thiophene-2-carboxamide] is below 100 nM; for `COc1ccccc1-c1cc(C2=CCCN(C(=O)CCn3ccnn3)C2)c(F)c2[nH]c(C(=O)N3CCN(c4cc(F)c5nc(C)n(C(C)C)c5c4)CC3)cc12` [Example I-340] it is below 100 nM; for `COc1ccccc1-c1cc(C2=CCCN(C(=O)CCn3ccnn3)C2)c(F)c2[nH]c(C(=O)N3CCN(c4cc5ccccc5cc4OC)CC3)cc12` [Example I-342] it is below 100 nM.
On the same count and under the same terms, the figure for `COc1ccccc1-c1cc(C2=CCCN(C(=O)CCn3ccnn3)C2)c(F)c2[nH]c(C(=O)N3CCN(c4ccccc4OC)CC3)cc12` [Example I-349] is below 100 nM; for `COc1cnc(N2CCN(C(=O)c3cc4c(-c5ccccc5OC)cc(C5=CCCN(C(=O)CCn6ccnn6)C5)c(F)c4[nH]3)CC2)c(OC)c1` [Example I-352] it is below 100 nM; for `COc1ccccc1N1CCN(C(=O)c2cc3c(-c4cnccc4OC(C)(C)C)cc(C4=CCCN(C(=O)CCn5ccnn5)C4)c(F)c3[nH]2)CC1` [Example I-404] it is below 100 nM.
Turning to `COc1cnccc1-c1cc(C2=CCCN(C(=O)CCn3ccnn3)C2)c(F)c2[nH]c(C(=O)N3CCN(c4ccccc4OC)CC3)cc12` [Example I-407], the IC50 (30 minutes at room temperature) was below 100 nM.
Regarding `COc1ccccc1-c1cc(C2=CCCN(C(=O)CCn3ccnn3)C2)c(F)c2[nH]c(C(=O)N3CC=C(c4ncccc4OC)CC3)cc12` [Example I-425], the IC50 (30 minutes at room temperature) was below 100 nM.
Still for that read-out and setting: the figure for `COc1cccc(C2=CCN(C(=O)c3cc4c(-c5cnccc5OC)cc(C5=CCCN(C(=O)CCn6ccnn6)C5)c(F)c4[nH]3)CC2)n1` [Example I-443] is below 100 nM.
Same read-out and setting: the figure for `COc1ccncc1-c1cc(C2=CCCN(C(=O)CCn3ccnn3)C2)c(F)c2[nH]c(C(=O)N3CCN(c4nnccc4OC)CC3)cc12` [Example I-467] is below 100 nM; for `CCOc1ccncc1-c1cc(C2=CCCN(C(=O)CCn3ccnn3)C2)c(F)c2[nH]c(C(=O)N3CCN(c4ccnnc4OC)CC3)cc12` [Example I-483] it is below 100 nM; for `CCc1cc(C)ncc1-c1cc(C2=CCCN(C(=O)CCn3cccn3)C2)c(F)c2[nH]c(C(=O)N3CCN(c4nc(C)ccc4OC)CC3)cc12` [Example I-514] it is below 100 nM.
For the compound `CCc1nc(C)ccc1-c1cc(C(=O)N2CCN(c3ncc(F)cc3OC)CC2)cc2cc(C3=CCCN(C(=O)CCc4nccs4)C3)n(CC3CC3)c12` [Example I-523], the IC50 (30 minutes at room temperature) was below 100 nM.
As to `CCc1ccc(-c2cc(C(=O)N3CCN(c4ncc(F)cc4OC)CC3)cc3cc(C4=CCCN(C(=O)C5CC5C(=O)O)C4)n(CC4CC4)c23)c(C)n1` (stereo not drawn) [Example I-545], the IC50 (30 minutes at room temperature) is below 100 nM.
Still for that read-out and setting: the figure for `COc1ccncc1-c1cc(C2=CCCN(C(=O)CCn3ccnn3)C2)c(F)c2[nH]c(C(=O)N3CCN(c4ccccc4OC)CC3)cc12` [Example I-565] is below 100 nM; for `COc1ccccc1N1CCN(C(=O)c2cc3c(-c4cccc(F)c4OC)cc(C4=CCCN(C(=O)CCn5ccnn5)C4)c(F)c3[nH]2)CC1` [Example I-567] it is below 100 nM.
As for `COc1cc(N)ccc1-c1cc(C2=CCCN(C(=O)CCn3ccnn3)C2)c(F)c2[nH]c(C(=O)N3CCN(c4ncccc4OC)CC3)cc12` [Example I-571], the IC50 (30 minutes at room temperature) was below 100 nM.
`COc1cc(C#N)ccc1-c1cc(C2=CCCN(C(=O)CCn3ccnn3)C2)c(F)c2[nH]c(C(=O)N3CCN(c4ncccc4OC)CC3)cc12` [Example I-576]: the half-maximal inhibitory concentration (IC50) (30 minutes at room temperature) is below 100 nM.
For the compound `COc1cccnc1N1CCN(C(=O)c2cc3c(C4CCCCC4)cc(C4=CCCN(C(=O)CCn5ccnn5)C4)c(F)c3[nH]2)CC1` [Example I-579], for the setting “30 minutes at room temperature”, the IC50 is below 100 nM.
For the setting “30 minutes at room temperature”, `COc1cnccc1-c1cc(C2=CCCN(C(=O)CCn3ccnn3)C2)c(F)c2[nH]c(C(=O)N3CCN(C4CC4)CC3)cc12` [Example I-605] displayed an IC50 below 100 nM.
On the same count and under the same terms, the figure for `COc1cc(F)cnc1N1CCN(C(=O)c2cc3c(-c4ccnc(N5CCN(C)CC5)c4)cc(C4=CCCN(C(=O)CCn5ccnn5)C4)c(F)c3[nH]2)CC1` [Example I-617] is below 100 nM; for `COc1cc(F)cnc1N1CCN(C(=O)c2cc3c(-c4cccc(-c5cccnc5)c4)cc(C4=CCCN(C(=O)CCn5ccnn5)C4)c(F)c3[nH]2)CC1` [Example I-629] it is below 100 nM.
The same measure, in the same setting: the figure for `COc1cc(F)cnc1N1CCN(C(=O)c2cc3c(-c4c(F)ccc5ccc(C)nc45)cc(C4=CCCN(C(=O)CCn5ccnn5)C4)c(F)c3[nH]2)CC1` [Example I-631] is below 100 nM.
Still for that read-out and setting: the figure for `COc1ccc(-c2cc(C3=CCCN(C(=O)CCn4ccnn4)C3)c(F)c3[nH]c(C(=O)N4CCN(c5ncc(F)cc5OC)CC4)cc23)c(C2CC2)c1` [Example I-641] is below 100 nM; for `COc1cc(F)cnc1N1CCN(C(=O)c2cc3c(C4=CCN(C(C)=O)CC4)cc(C4=CCCN(C(=O)CCn5ccnn5)C4)c(F)c3[nH]2)CC1` [Example I-657] it is below 100 nM.
